Assays:
[1] = system: SL3 parental xenografts; assay: SL3 xenograft model, parental; type: in vivo, NU/J mice; settings: weekly 2.5 mg/kg cisplatin and/or 5 mg/kg 102-5; 24 days post-inoculation
Experimental: Four-week old female NU/J mice (2019, Jackson Laboratories) were acclimated for 1 week before injection of 0.5×10^6 parental SL3 or 1×10^6 cisplatin-resistant SL3-cis cells subcutaneously into the flank in 200 μL PBS. Tumors were measured with calipers and volumes were calculated by ½ (W×W×L). After tumors had grown to an average of 100 mm^3, mice were separated into groups of 5 mice, each group with 100 mm^3 average tumor sizes. Mice were treated weekly with intraperitoneal doses of PBS control, cisplatin 2.5 mg/kg, and/or 102-5 5 mg/kg in 200 μL of PBS at room temperature beginning on day 6 post-inoculation. Cisplatin treatments were administered 24 hours following antibody treatment. Tumor volume was measured at least weekly. Animal health was monitored daily and animal weights measured at least weekly. All procedures were reviewed and approved by MCW IACUC committee #2 under AUA6339.
J/NU mice xenografted with SL3 parental or SL3-cis platinum resistant cells were treated weekly with control vehicles, 2.5 mg/kg cisplatin, and/or 5 mg/kg 102-5 anti-CLPTM1L. The effects of cisplatin and those of 102-5 on cisplatin treatment were investigated in this model rather than those of carboplatin since the SL3cis line was developed specifically as a cisplatin resistant line.

[2] = system: platinum-resistant A2780 human ovarian tumor cells; assay: carboplatin apoptotic killing (casp 3/7 live imaging); type: cell-based; settings: 10 μM carboplatin; synergistic by ANOVA
Experimental: (§1) (A) A2780 apoptotic killing (casp 3/7 live imaging) after 36 hour mAb treatment (scFv clones 102-4a left, 102-5a right) and 24-hour carboplatin treatment. (B) Dose-response to up to 20 μM carboplatin in resistant A2780 cells treated with either control IgG1 or 102-5, relative to 0 carboplatin controls. (C) Kinetic killing assay (live imaging) in A2780 with human anti-CLP™1L scFv and/or 10 μM carboplatin treatment. *p<0.05, **p<0.005, ***p<0.0005. (D) Western blotting and densitometry for Akt and phospho-Akt (T308) in A2780 andA2780cis. (E) Cisplatin viability (MTT) inhibition curves for SL3 sensitive (parental) and resistant (SL3cis) tumor spheroids, pAkt (T308) and total Akt western blots on SL3 and SL3cis spheroid lysates (inset). […]
Cells were plated on 24-well tissue culture plates at equal density (˜80) confluence and allowed to attach overnight before treatment as indicated in at least triplicate. […] Confluence and fluorescent dead cell counts per well were monitored at 3 hour intervals using an Incucyte FLR live cell imager and software (Essen Biosciences, Ann Arbor, MI). Student's T-test determined significance of differences between groups, and ANOVA determined significance of interaction between treatments. […]

[3] = system: Akt phosphorylation at threonine 308 in A2780 and A2780-cis; assay: Western blotting for Akt and phospho-Akt (T308); type: cell-based, human
Experimental: as §1, with “andA2780cis.” for “andA2780cis. (E) Cisplatin viability (MTT) inhibition curves for SL3 sensitive (parental) and resistant (SL3cis) tumor spheroids, pAkt (T308) and total Akt western blots on SL3 and SL3cis spheroid lysates (inset).”
Cells were lysed with 100 μL of 1× NP40 lysis buffer containing proteinase inhibitors, sheared 10 times with a 28-gauge needle, spun at 16,000×g for 30 minutes, normalized by protein concentration as determined by the Bradford method, and the supernatant boiled for 5 minutes. Twenty microliters of normalized lysate were resolved by SDS-PAGE on 10% acrylamide gels at 150 volts for 1 hour, transferred by iBlot dry transfer (Life Technologies), blocked for 2 hours with TBST 10% milk, incubated with primary antibodies at 1:1000 in TBST 5% milk at 4C overnight with rocking, washed 3×5 minutes with TBST, incubated with secondary anti-rabbit-HRP (Santa Cruz Biotechnology) or goat anti-human-HRP (Invitrogen MH1715) at 1:10,000 in TBST 5% milk for 2 hours with rocking, washed 5×10 minutes with TBST, and signal analyzed using a Biorad Chemidoc XRS. […]

[4] = system: Ovcar4 human ovarian serous adenocarcinoma cells; assay: sensitization to carboplatin; type: cell-based
Description: (B) Graphs illustrate that dose-response of carboplatin killing in human ovarian tumor cells was also shifted by treatment with human anti-CLPTM1L. Re-sensitization of MCW-SL3cis cells to cisplatin killing by 102-5 anti-CLPTM1L was synergistic as measured by (C) two-way ANOVA (p<0.05) and (D) isobole and combination index (0.65).
The dose-response of carboplatin killing in human ovarian tumor cells was also shifted by treatment with human anti-CLPTM1L (FIG. 13B). […] Like CLPTM1L induction in SL3cis (FIG. 12C), phosphorylation threonine 308 of Akt was increased in SL3cis compared to that in parental SL3 cells (FIG. 13E).

B1: 102-5: Human anti-CRR9/CLPTM1L IgG1; heavy chain V SEQ ID NO:30, light chain V SEQ ID NO:31 (antibody, V domains shown)
VH: EVQLLESGGGLVQPGGSLRLSCAASGFSFSSYEMNWVRQAPGKGPEWISYISSGGGTIYYADSVRGRFTISRDNSNNTLYLQMNSLRPDDTAIYYCARDRGRKWLQLLFDSWGQGTLVTVSS
VL: QAVLTQPPSASGTPGQKVTISCSGSSSNIGSNTVNWYQQLPGTAPKLLIYTNNQRPSGVPDRFSGSKSGASASLAISGLQSKDEADYYCAAWDDSLNGWVFGGGTKLTVLG
modifications: Synthetic- Anti-CRR9/CLPTM1L clone 102-5 heavy chain V; Synthetic- Anti-CRR9/CLPTM1L clone 102-5 light chain V
tumor growth and volumes [1]: significantly inhibited | apoptotic killing response to carboplatin [2]: increased the apoptotic killing response of 10 μM carboplatin | Akt phosphorylation at threonine 308 [3]: decreased Akt phosphorylation at threonine 308 | sensitization to carboplatin [4]: synergistically sensitized to carboplatin

From patent publication US12129305B2, “Targeting CLPTM1L for treatment and prevention of cancer” (The Medical College of Wisconsin, Inc., priority 2018, dated 2024)
